Binding signal data for 14 molecules are collected here from PMC12136788.

First the molecules themselves.
T1: UNK ZnF1-3 (human, UniProt Q9C0B0 31-174)
T1 sequence: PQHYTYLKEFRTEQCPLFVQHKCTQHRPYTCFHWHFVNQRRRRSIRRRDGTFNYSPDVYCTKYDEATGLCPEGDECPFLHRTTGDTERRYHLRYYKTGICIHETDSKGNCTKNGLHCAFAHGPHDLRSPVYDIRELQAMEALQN

B1: chr5:73697939:73697940:+_ENSMUSG00000029152_ENSMUST00000031038|mus_hu|FALSE|FALSE (ssRNA)
RNA: GGGAGUUCUACAGUCCGACGAUCUCCUUGGACAAUAUGAUCAGUAAUACCAGUGGGAGCAGAUUCAUUCAUAGAAGAACUGAAUGGAAUUGGCUCAUAAUGAGGAAGCAUUUCUAUGUUGUCUGCUGCUGGGGAUGUCACAAACAACAGAGGAUUGAGCAUCA
B2: chr7:75932113:75932114:+_ENSG00000106211_ENST00000248553|hu_hu|hu_hu_hu_mus_False|58_88 (ssRNA)
RNA: GGGAGUUCUACAGUCCGACGAUCCUGCGACCACUCAUCGGGCAACCGGGGCAGCCCGAAAGCUUGAUCGAAGAGGCGGCUAUGCGGAGGGUACCAGUCCCGGAAUGGUUCCCAGCUCGGGCUCCGCAGCAGCGAGAAGGGCACCAACAGAGGAUUGAGCAUCA
B3: chr3:148802587:148802588:-_ENSG00000071794_ENST00000310053|hu_mus|hu_hu_hu_mus_False|38_98 (ssRNA)
RNA: GGGAGUUCUACAGUCCGACGAUCUCCAACAACUUGUCCUCUCAAACUUCCAAAUAAAACCAAAUCUUGCUCUUCAUCACUCGUUAGGAAGUCAUCUGGAGGGAUAAUGUCUUGGAAUUCAAAAUGUGGCAAGAAAGUUGAGUACAACAGAGGAUUGAGCAUCA
B4: chr14:96997824:96997825:+_ENSG00000090060_ENST00000216277|hu_mus|FALSE|FALSE (ssRNA)
RNA: GGGAGUUCUACAGUCCGACGAUCGUUUUUAAGCAGACUGUCAUCUCGUAGGUCCAAAUCUUCUGGAAUAGUCUGCAGUGCUAAUCUUGCAAACAAAAUAUCAAUCUCUAUUCCAUCAAAACAGAGUUUGAUAACUGGUACAAACAACAGAGGAUUGAGCAUCA
B5: chr7:135124741:135124742:+_ENSMUSG00000030795_ENSMUST00000077609|mus_hu|FALSE|FALSE (ssRNA)
RNA: GGGAGUUCUACAGUCCGACGAUCAGAGCCACCUGGUCCCCCUCCUGGGCCAUCUGGUUUAGGGGCCUUACACUGGUUGCAUUCAUUCCUCCAAGAGAAGUUCAUAUUCUCACAGGUGGGAUUAGGACACUUCCAGUCACCAGCCAACAGAGGAUUGAGCAUCA
B6: chr10:75542919:75542920:+_ENSG00000172586_ENST00000372833|hu_hu|FALSE|FALSE (ssRNA)
RNA: GGGAGUUCUACAGUCCGACGAUCAUUUCAGUCAUUGAAAAUACUUGUCCAUUUUCAGCUGAGGUAAGGUUUGUUAGGAAACCUCUGUAACAACUUAUUCAAUUUAUUUGGAAGUAAACUCCCAGACUCUCCCAGGGUUUCCUGCAACAGAGGAUUGAGCAUCA
B7: chr17:30658727:30658728:-_ENSG00000108666_ENST00000577809|hu_hu|FALSE|FALSE (ssRNA)
RNA: GGGAGUUCUACAGUCCGACGAUCUUCAAAUCAUCUUAAAUAGCAAUCCUAUGAACAAUUAUAACUGCAAUUUCAAACACUAAGACUUAAAUAUACAACUUGAUCAUACAAUUAUCUCAAAACAUAUGAUCAAAAACUUUGGUCCAACAGAGGAUUGAGCAUCA
B8: chr12:48528548:48528549:+_ENSG00000152556_ENST00000359794|hu_hu|FALSE|FALSE (ssRNA)
RNA: GGGAGUUCUACAGUCCGACGAUCGAGUCGGCGACAAAGGUGUUCCUCCCAGUCGUCAUCUGGUGGACAUUCAGGAAUAAAAACCCAGUCGGCCCCACAGGACAGAGAGGUGACAAGGGCCAGGUAUCCACAGUGGCGGCCCAUCAACAGAGGAUUGAGCAUCA
B9: chr5:132424114:132424115:+_ENSG00000170606_ENST00000304858|hu_hu|motif|central (ssRNA)
RNA: GGGAGUUCUACAGUCCGACGAUCACCGAAAAAUUUGCUGAUCUUCUCUUUUACCGCAGGGAUUCGUGUAGCACCACCAACGGUCUCCACUGCAUAAAUAUCUUCUUUCUUUAACUUGGUUUGUUCCAAAACACUACGAAGUGGCAACAGAGGAUUGAGCAUCA
B10: chr2:198266515:198266516:-_ENSG00000115524_ENST00000335508|hu_mus|motif|central (ssRNA)
RNA: GGGAGUUCUACAGUCCGACGAUCCUUCAUUUCUUCAUCAGGAGACUGAAAUUCUCGAAUGAGGAUUAACAUCACUUCUCGGGUAUAGUAGUUGGCAUAUUCUGCAUCCAUAAGAGGAAUAAGAUACCCAAUAGCCUUCAAGAACAACAGAGGAUUGAGCAUCA
B11: chr3:15292738:15292739:+_ENSG00000131375_ENST00000253693|hu_mus|motif|central (ssRNA)
RNA: GGGAGUUCUACAGUCCGACGAUCCCAGUAAUAGCUGAGAGUUCUCAAUCAUUGGAGUUGUGUUGUCUUGAUGGGGACAGUACGGUUAAAGUCCAAGAAAAAAGGUCCUUCUUGUUUAGGCAAAAAAGUACUAGGGAUGAUAUUCAACAGAGGAUUGAGCAUCA
B12: chr8:95500983:95500984:-_ENSG00000164944_ENST00000437199|hu_hu|hu_hu_hu_mus_True|8_8 (ssRNA)
RNA: GGGAGUUCUACAGUCCGACGAUCAGAACACAUCUAUCGAGUAAAGGACCGUACAUGACGGCCUCUACCACUGCCUCCACUAACAAACUUUCCUCUCGAGCCUCCACUGCCGCUAUUUGUACUAGCCCCAGGAAGGUCCAGGCCCAACAGAGGAUUGAGCAUCA
B13: chr7:135612270:135612271:-_ENSG00000105887_ENST00000393085|hu_mus|hu_hu_hu_mus_False|78_98 (ssRNA)
RNA: GGGAGUUCUACAGUCCGACGAUCGUUUUUUUCUGAGUAAGUAUUACGUACUUCAGUAACAAAACUUACUUAACCUUUUAUUAAUGCGUGUUGUACCAAAAGCAGACAUUUUAGCUUCAUUUAUUCAAAAAUAUUAACAUUAAGCAACAGAGGAUUGAGCAUCA
B14: chr11:106647441:106647442:-_ENSMUSG00000020719_ENSMUST00000021062|mus_mus|FALSE|FALSE (ssRNA)
RNA: GGGAGUUCUACAGUCCGACGAUCUAUGUGUACAAUGGCAGGCAGCAAAUAAGAUAAUGUUUUCCCAGAUCCAGUCUGAGCUACUCCAACCAUAUCCAAUCCACUGAGAGCAACUGGCCAGCCCUGAGCUUGAAUAGCAGUGGGCAACAGAGGAUUGAGCAUCA

Some of the results follow.

This assay concerns the target T1, UNK ZnF1-3. The experiment in a line: nsRBNS (natural sequence RNA bind-n-seq); RBNS binding buffer (assumed for nsRBNS): 25 mM Tris pH 7.5, 150 mM KCl, 3 mM MgCl2, 0.01% Triton X-100, 500 ug/ml BSA, 20 U/ml SUPERase-In, 4 C; UNK is unkempt and MSI1 is Musashi-1; names of the RNAs are library labels; protein concentration not given here; high values mean tight binding.
On to B1, for which the binding signal amounted to 1.58 enrichment R. Under B2 stands 1.11 enrichment R; under B3, 1.23 enrichment R; under B4, 0.523 enrichment R. Under B5 stands 1.04 enrichment R. Under B6 stands 0.452 enrichment R. In turn, B7 came in with a binding signal of 0.624 enrichment R.

For B8, the binding signal came to 0.775 enrichment R. For B9 the value was 0.77 enrichment R; for B10, 1.28 enrichment R; for B11, 1.16 enrichment R. For B12 the value was 0.994 enrichment R; for B13, 0.865 enrichment R; for B14, 1.64 enrichment R.
